Source: the supplement of paper PMC3334620
Over roughly 33,000 sequences, “E-score (-0.5 to 0.5)” has its median near -0.012; the highest 2% begin near 0.27. Some of the results follow.

Target: T1, Vhr1 (UniProt P40522)
T1 sequence: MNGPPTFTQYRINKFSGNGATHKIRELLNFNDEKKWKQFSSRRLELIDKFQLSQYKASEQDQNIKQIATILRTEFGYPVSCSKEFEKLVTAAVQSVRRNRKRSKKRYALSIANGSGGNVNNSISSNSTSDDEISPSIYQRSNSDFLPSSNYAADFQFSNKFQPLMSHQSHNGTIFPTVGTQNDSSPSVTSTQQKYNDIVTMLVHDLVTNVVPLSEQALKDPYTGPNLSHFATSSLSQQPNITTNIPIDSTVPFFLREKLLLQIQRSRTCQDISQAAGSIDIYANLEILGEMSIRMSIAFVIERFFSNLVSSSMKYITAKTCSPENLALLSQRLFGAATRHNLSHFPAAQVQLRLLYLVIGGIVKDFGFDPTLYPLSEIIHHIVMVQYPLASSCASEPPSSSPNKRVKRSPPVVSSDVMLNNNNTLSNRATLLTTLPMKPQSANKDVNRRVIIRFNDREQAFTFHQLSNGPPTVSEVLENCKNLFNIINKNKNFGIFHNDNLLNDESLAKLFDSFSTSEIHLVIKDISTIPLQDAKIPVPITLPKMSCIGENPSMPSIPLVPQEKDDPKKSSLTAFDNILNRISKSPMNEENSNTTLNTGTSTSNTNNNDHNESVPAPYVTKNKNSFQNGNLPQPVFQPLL
Assay: PBM E-score (8-mer binding enrichment) (E-score (-0.5 to 0.5)); higher = stronger / more preferred TF binding; most listed sequences are background and not binding sites
Conditions: protein concentration: 200 nM; construct: GST-full length
How it was run: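 Universal all-10-mer Agilent arrays, fresh or stripped once, were converted to double-stranded form by primer extension. GST-tagged yeast transcription factors from PURExpress in vitro transcription/translation, full-length or DNA-binding domain only, were applied at about 100-200 nM and detected with fluorescent anti-GST. After masliner normalisation, the Universal PBM Analysis Suite scored each ungapped eight-base word together with its reverse complement by E-score.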

Sequence	PBM E-score
CGCGAACC	-0.035
CGACAAAG	-0.171
AAGTTTTC	-0.168
ATTCCTGC	0.00809
TCACTTAA	0.0704
ACCATTAG	0.0787
GTAATACA	0.185
ATATTGAC	0.00562
AAGCCCCT	-0.186
GTTGTCAA	-0.031
GGAATACC	-0.226
AGAAAACC	-0.0835
GCTATTAA	0.0113
CCCGGTCA	0.13
GCACATGA	0.111
GACGCGGC	0.109
CAAGCGGC	0.127
ACTTGACA	-0.168
CTCTTTAC	-0.116
CGACGTTA	0.0703
ACTACGGC	0.0515
GAGAGACC	-0.00022

Sequence	PBM E-score
ACTCGAAA	-0.0152
ACGTCCGC	-0.105
TACATCTA	0.0469
ACAACCGT	-0.184
ACATGGCC	-0.0801
ACAACCTA	0.00737
TTGACCAA	0.00092
CGAAGGAG	-0.0105
ACGAGTCG	0.322
CGTAACAA	-0.0651
ATAAACTA	0.0187
ATTCTGTC	-0.0706
ACATAGCT	-0.216
GTCTCTGA	-0.0341
CGCTTTAA	-0.199
AATGTCAC	0.0925
CTCGTCCC	-0.0539
CTCCAGCC	-0.0218
ATTATTTG	0.0696
ACCTTTCG	-0.225
CTTCCCAA	-0.199
GATATAAC	0.0122

Sequence	PBM E-score
GTGGGGGA	-0.279
ATCACCCG	0.25
CGATTGGC	-0.0714
AAGTAAGC	-0.34
CCGAGGTC	0.0282
TCTCCTCA	-0.11
GGAGTCTA	0.0135
ATCCTTAA	-0.179
GCCTAAGA	-0.204
GAGTCCGA	0.308
GTGACTAA	0.428
ACCCACGA	0.215
GAGGCTGA	-0.00874
ATATCTCA	0.0878
GGCGAGTA	0.0781
TACGAGTA	0.113
AATGGATG	-0.00152
ACAGGTAA	-0.191
ACACAACA	0.0209
AATGTTTC	-0.186
TCCCGAAA	-0.109
AGTGGTAT	0.00981

Sequence	PBM E-score
AATCGCCA	-0.0266
TCAAGGAA	-0.0565
AAGAGTGC	-0.076
ACAAGTAT	0.0268
AATTTGGT	-0.0733
ATGCTCCG	-0.19
ACCACCCA	0.192
AGACTTAC	-0.161
GTTCTGGA	-0.0347
CCGTGTCC	0.123
ACGTATCA	0.117
CCAGGTAA	-0.0317
AACTAATA	0.218
CAGCGCCG	-0.044
CCCCTTCG	-0.155
GCACATAA	0.0338
CCAGGTAC	0.0626
AACCTGCC	-0.121
CGGAGAAA	-0.0281
CAGCAGAC	-0.0587
